Assay results taken from PubChem BioAssay AID1508624 (National Center for Advancing Translational Sciences (NCATS), 2021).
Screen size: about 48,000 compounds; about 120 (0.25%) were called active. Inconclusive results (about 4%) are left out. Calls follow the shape of the dose curve; as a rule, active = well fitted activation curve with a large enough effect; inconclusive = small, poorly fitted or top-dose-only effect, or another doubt; inactive = no such curve, though single readings can be large or run the other way. Some of the results follow.

assay: Primary qHTS for Identification of Small Molecule Activators of Huntingtin-Antisense Promoter Activity; conditions: HEK293 HTT-AS promoter firefly luciferase reporter, 24 h; series mostly up to 57.5 µM; activity change, positive = activation: at the top concentration; also: nearly all actives have a fitted effect of over 55% in size
Outline: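 HEK293 Fluc reporter, 2,500 cells/well, 24 h pre-culture; cpds up to 57.5 uM final, 24 h 37 degrees C; Dual-Glo, 10 min RT; normalized vehicle = 0%, zero RLU = -100%.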

Row | Structure (SMILES) | activity change, positive = activation
1 | COC(=O)c1ccc(OCC2c3cc(OC)c(OC)cc3CCN2C(=O)c2ccccc2F)cc1 (stereo not drawn) | inactive: -21%
2 | Cc1ccc(C)c(Cn2nc(C)n3c(cc4cc(C)ccc43)c2=O)c1 | inactive: -7.23%
3 | CCCCCn1c(=N)n(CC(O)COc2cccc(C)c2)c2ccccc21 (stereo not drawn) | inactive: -33.2%
4 | O=C(CSCc1cnn(-c2ccccc2)c1-n1cccc1)Nc1ccc(F)cc1F | inactive: -24.3%
5 | CCCCOc1ccc(C2=NC(c3ccccc3)=Nc3ccc(OC)cc3N2)cc1 | inactive: 13.9%
6 | Cn1c(=O)c2c(-c3ccccc3Br)n(CCc3ccccc3)cc2n(C)c1=O | inactive: -28.1%
7 | O=C1O[C@H]([C@@H](O)CO)C(O)=C1O | inactive: -5.75%
8 | Clc1ccccc1Cc1cn2cc(-c3ccccc3)nc2s1 | inactive: -8.5%
9 | CCc1ccc(NC(=O)CSc2nnc(-c3cc4occc4n3C)n2-c2ccccc2C)cc1 | inactive: -17.5%
10 | C=CCc1c(C)nc2nc(SCC(=O)Nc3ccc(OCC)cc3)nn2c1C | inactive: 2.47%
11 | Cc1cc(C)cc(NC(=O)C2(c3cccs3)CCOCC2)c1 | inactive: -13.6%
12 | COc1ccccc1CNC(=O)Cn1nc(C)c2nn(-c3ccc(Cl)cc3)c(C)c2c1=O | inactive: -43.1%
13 | CC(C)c1ccc(Nc2ncnc3c2c(-c2ccccc2)cn3-c2ccccc2)cc1 | inactive: 2.93%
14 | CC(C)COc1ccccc1C1CC(=O)Nc2cc3c(cc21)OCO3 (stereo not drawn) | inactive: -47.3%
15 | COc1ccccc1NC(=O)CSc1nnc2c3ccccc3n(C)c2n1 | inactive: 6.33%
16 | Clc1cccc(-n2ncc3c(N4CCN(Cc5ccccc5)CC4)ncnc32)c1 | inactive: -2.58%
17 | COc1cccc(CNC(=O)Cn2ccc3cc(S(=O)(=O)N4CCC(C)CC4)ccc32)c1 | inactive: -28.3%
18 | Cc1cc(C)cc(OCC(=O)N(Cc2ccc(C)o2)C2CCS(=O)(=O)C2)c1 (stereo not drawn) | inactive: -18.9%
19 | Cc1ccc(-c2nn3c(=O)cc(CN4CCN(C(=O)Nc5cc(Cl)ccc5C)CC4)nc3s2)cc1 | inactive: -6.62%
20 | CCC(CC)C(=O)Nc1ccc2nc(SCC(=O)N3c4ccccc4CC3C)sc2c1 (stereo not drawn) | inactive: -28.4%
21 | CC(C)Oc1ccc(CNC(=O)c2ccc3nc(Cc4ccccc4)oc3c2)cc1 | inactive: -16.7%
22 | CCOC(=O)c1c(C)sc(-c2c(-c3ccc(OC)c(F)c3)[nH]c3c2c(=O)[nH]c(=O)n3C)c1O | inactive: -28.4%
23 | Clc1ccc(C(c2ccccc2Cl)C(Cl)Cl)cc1 (stereo not drawn) | inactive
24 | COc1ccc(Cl)cc1NC(=O)c1c(NCc2ccc(C)o2)sc2c1CCCC2 | inactive: -7.07%

Row | Structure (SMILES) | activity change, positive = activation
25 | COCCNC(=O)c1cc2c(Cl)nc3ccc(C)cc3c2s1 | inactive: -2.02%
26 | C=C1C(=CC=C2CCCC3(C)[C@@H]([C@H](C)C=CC=CC(O)(CC)CC)CC[C@@H]23)C[C@@H](O)C[C@@H]1O (stereo partly drawn) | inactive: -17.8%
27 | Cc1ccc(CN(Cc2ccco2)C(=O)c2oc3c(C)c(C)ccc3c2C)cc1 | inactive: -26.7%
28 | COc1cccc(N(CC(=O)N2CCC(C)CC2)S(=O)(=O)c2ccc(C)cc2)c1 | inactive: -23%
29 | COc1cc(OC)c(Nc2ncnc3onc(-c4cccc(Cl)c4)c23)cc1Cl | inactive: -14.2%
30 | CN(C)c1ccc(C(=C2C=CC(=[N+](C)C)C=C2)c2ccccc2)cc1 | inactive: -96%
31 | CCC(C)NC(=O)CSc1nc2cc3c(cc2c(=O)n1CCCC(=O)NCc1ccc2c(c1)OCO2)OCO3 (stereo not drawn) | inactive: -9.9%
32 | CCOc1ccccc1CNC(=O)CN1C(=O)CCc2cc(S(=O)(=O)N3CCCCC3)ccc21 | inactive: -21.1%
33 | Cc1cccc(OCC(=O)Nc2ccc3nc(Nc4cccc(Cl)c4)cc(C)c3c2)c1 | inactive: -33.3%
34 | c1ccc(CNc2nc(N3CCOc4ccccc43)nc3c2CCCC3)cc1 | inactive: -27.4%
35 | COc1ccccc1NC(=O)c1c(NC(=O)c2ccccc2Cl)sc2c1CCC2 | inactive: -26.8%
36 | CC(=O)N1CCc2c(sc3c2c(=O)n(Cc2ccccc2)c(=O)n3CC(=O)Nc2ccc(C)c(F)c2)C1 | inactive: -28.5%
37 | COc1ccc(CN2C(=O)C(NC(=O)c3ccccc3OC)(C(F)(F)F)N=C2c2ccccc2)cc1 (stereo not drawn) | inactive: -23.3%
38 | CCc1ccc(NC(=O)CCn2cnc3ccccc3c2=O)cc1 | inactive: 10.7%
39 | CCc1ccc(S(=O)(=O)c2nnn(-c3cccc(C)c3)c2N)cc1 | inactive: -33.3%
40 | COc1ccc(NC(=O)Cn2ccn(-c3ccccc3)c(=O)c2=O)cc1 | inactive: -5.47%
41 | Cc1cccc(C)c1OCC(=O)N[C@@H](Cc1ccccc1)[C@@H](O)C[C@H](Cc1ccccc1)NC(=O)[C@H](C(C)C)N1CCCNC1=O | inactive
42 | Cc1ccc(-n2nc(C)c3c(C(=O)Nc4ccc(Br)c(C)c4)cc(C)nc32)cc1 | inactive: -7.39%
43 | COCCNC(=O)CSc1nc(-c2ccc(C)cc2)nc2c1c(=O)n(C)c(=O)n2C | inactive: -2.32%
44 | COC(=O)C1=C(C)NC(=O)C1(NC(=O)c1ccccc1C)C(F)(F)F (stereo not drawn) | inactive: -1.15%
45 | COc1ccc(CCC(=O)NCc2ccc3c(c2)CCN3C(=O)c2ccc(C)cc2)cc1 | inactive: -32.4%
46 | COc1cccc(-c2nc(SCC(=O)N3CCc4ccccc43)c3c(=O)n(C)c(=O)n(C)c3n2)c1 | inactive: -0.0467%
47 | O=C(NCc1ccc(F)cc1)C1CCN(C(=O)c2cnn(-c3ccccc3)c2-n2cccc2)CC1 | inactive: -28.8%
48 | CCCCN(CC)CCCNC(=O)c1cn(C)c2ccc(S(=O)(=O)N(C)C3CCCCC3)cc2c1=O | inactive: -13.2% [at 11.5 µM, percent change from vehicle, -100% = no light]

Row | Structure (SMILES) | activity change, positive = activation
49 | CCOc1cc(C(=O)NCc2ccc3c(c2)CCN3C(=O)CC)cc(OCC)c1OCC | inactive: -6.16%
50 | COc1cccc(CNC(=O)CCC(=O)N2CC3CCCN3c3ccccc32)c1 (stereo not drawn) | inactive: -9.26%
51 | Cc1ccccc1NC(=O)CN(C)S(=O)(=O)c1cccc2nsnc12 | inactive: -5.41%
52 | CCC(Cn1nnc2ccccc2c1=O)NC(=O)Nc1cccc(Cl)c1 (stereo not drawn) | inactive: -26.4%
53 | COc1ccc(-c2[nH]ncc2C(=O)NCc2ccc(F)cc2)cc1 | inactive: -15.8%
54 | Cc1ccc(C(=O)N2CCN(c3ccccc3F)CC2)cc1NC(=O)c1nsc2ccccc12 | inactive: -26.1%
55 | CCc1cccc(NC(=O)Cn2c(=O)n(CC3CCC(C(=O)NCCc4ccccc4)CC3)c(=O)c3ccccc32)c1 (stereo not drawn) | inactive: -27.5%
56 | COc1cc(C(=O)Nc2ccc(-c3cc(C(F)(F)F)nn3-c3ccccc3)cc2)cc(OC)c1OC | inactive: -16.2%
57 | COc1cc(OC)c(NC(=O)Cn2c(=O)cc(C(F)(F)F)c3c(C)nn(C)c32)cc1Cl | inactive: -6.53%
58 | Cc1ccccc1NC(=O)CSc1nc2ccc(NC(=O)COc3ccccc3F)cc2s1 | inactive: -25.5%
59 | COCCNC(=O)C(=O)Nc1c2c(nn1-c1ccccc1)CS(=O)(=O)C2 | inactive: -8.43%
60 | CCc1ccccc1NC(=O)c1cnn2c(C(F)(F)F)cc(-c3ccc(OC)c(OC)c3)nc12 | inactive: -13%
61 | Cc1cccc(NC(=O)Cn2nc(N3CCN(c4ccccc4)CC3)ccc2=O)c1C | inactive: -18.4%
62 | CCOC(=O)c1cnn(-c2cccc(F)c2)c1C1CCNCC1 | inactive: -8.92%
63 | COc1ccccc1OCc1ccc(C(=O)Nc2ccc(C)c(C)c2)o1 | inactive: 0.95%
64 | CCOc1ccc(CCNC(=O)Cn2nc(C)c3c(C)n(-c4ccccc4)nc3c2=O)cc1OCC | inactive: 0%
65 | CCOC(=O)c1c(C)sc(-c2c(-c3cc(C)ccc3C)[nH]c3c2c(=O)[nH]c(=O)n3C)c1O | inactive: -22.6%
66 | CCn1cc2nc(SCc3cccc(OC)c3)n(Cc3ccc(Cl)cc3)c(=O)c2n1 | inactive: -39.2%
67 | CCCOc1ccc(CNC(=O)C2CCN(c3nc4ccccc4nc3C(F)(F)F)CC2)cc1 | inactive: 6.05%
68 | COC(=O)c1cc2sccc2n1Cc1ccccc1 | inactive: -19%
69 | O=[N+]([O-])c1ccc(O)c2ncccc12 | inactive: -35.9%
70 | CC1=C(C(=O)Nc2ccccc2Cl)C(c2cccs2)n2ncnc2N1 (stereo not drawn) | inactive: -18.8%
71 | O=C(CCC1N=C2c3ccccc3N=C(SCc3cccc(F)c3)N2C1=O)NC1CCCCC1 (stereo not drawn) | inactive: -0.429%
72 | Cc1cc(NS(=O)(=O)c2ccc(NC(=O)COc3c(C)cc(Br)cc3C)cc2)no1 | inactive: -14%

Row | Structure (SMILES) | activity change, positive = activation
73 | O=S(=O)(NCc1ccccc1)c1ccc2[nH]c3c(c2c1)CCCCC3 | inactive: -31.7%
74 | COc1cccc(NS(=O)(=O)c2ccc3[nH]cc(C(=O)NC4CCCCC4)c(=O)c3c2)c1 | inactive: -48.3%
75 | COc1ccccc1CCNC(=O)Cc1c(C)c2c(cc(C)c3c(C)coc32)oc1=O | inactive: -13.8%
76 | COc1ccc(N2C(=O)C(CC(=O)Nc3ccc(F)cc3)N(CCC3=CCCCC3)C2=O)cc1 (stereo not drawn) | inactive: -29.6%
77 | CN(C(=O)Nc1cn(C)c(=O)c2ccccc12)c1ccccc1 | inactive: -22.6%
78 | COc1ccc(Cl)cc1NC(=O)CN1c2ccccc2S(=O)(=O)c2ccccc21 | inactive: -18.8%
79 | O=C(CSC1=Nc2ccccc2N=C(c2ccc(F)cc2)C1)Nc1cc(F)ccc1F | inactive: -5.91%
80 | COCCCNC(=O)c1c(NC(=O)c2cc(=O)c3cc(C)c(C)cc3o2)sc2c1CCCC2 | inactive: 16.3%
81 | CCCN1C(=O)CN(C2CCCCCC2)C(=O)C1c1ccc(OCC)c(OC)c1 (stereo not drawn) | inactive: -23.7%
82 | CCCCNc1cc(NC2CCCCC2)c2c3c(onc13)-c1ccccc1C2=O | inactive: -24.3%
83 | CCc1ccc(N2C(=O)CS(=O)(=O)C23C(=O)N(Cc2ccccc2)c2ccccc23)cc1 (stereo not drawn) | inactive: -19.5%
84 | COc1cc(-c2noc(-c3nnn(-c4ccc(Cl)cc4)c3C)n2)cc(OC)c1OC | inactive: -7.13%
85 | Cc1ccc(-n2nc(CO)c(C(=O)NCCc3ccccc3)n2)cc1C | inactive: -14.2%
86 | CCCc1nn(C)c2c(=O)[nH]c(-c3cc(S(=O)(=O)N4CCN(C)CC4)ccc3OCC)nc12 | inactive
87 | CCc1cccc(C)c1Nc1c(-c2ccc(N3CCOCC3)cc2)nc2ncccn12 | inactive: -13.3%
88 | CC(=O)c1ccc(NC(=O)C2CCCN(S(=O)(=O)c3cn(C)cn3)C2)cc1 (stereo not drawn) | inactive: -5.64%
89 | Cc1c(CNC(C)c2ccccc2)c(C(=O)O)c(C)n1Cc1c(F)cccc1Cl (stereo not drawn) | inactive: -19.7%
90 | CCOc1ccc(-c2c(C)nn3c(C)c(C(=O)NCC(C)c4ccccc4)cnc23)cc1OCC (stereo not drawn) | inactive: -29.8%
91 | CCOC(=O)N1CCN([N+]([O-])=NOc2cc(ON=[N+]([O-])N3CCN(C(=O)OCC)CC3)c([N+](=O)[O-])cc2[N+](=O)[O-])CC1 | inactive: -12.7%
92 | Cc1ccc(CNC(=O)c2ccc3c(c2)N(Cc2cccc(Cl)c2)C(=O)CS3)cc1 | inactive: -36.6%
93 | Cc1cc(O)c(C(=O)c2cnc3c(c2)COc2ccccc2-3)cc1Cl | inactive: -17.6%
